# Reference: PubChem BioAssay AID504845 (National Center for Advancing Translational Sciences (NCATS), 2011)
# The campaign covered roughly 390,000 compounds. About 150 (0.038%) were called active. This list was built around the results that the source calls inconclusive (neither active nor inactive); the mix of calls is not that of the screen. Calls come from the whole dose curve; as a rule, active = well fitted inhibition curve with a large enough effect; inconclusive = small, poorly fitted or top-dose-only effect; inactive = no such curve, though single readings can be large or run the other way. A potency beside an inconclusive call is a rough fit, not a confirmed value.
# Biological target: Regulator of G-protein signaling 4 (Homo sapiens) (UniProt P49798)
# Test: Inhibitors of Regulator of G Protein Signaling (RGS) 4: qHTS; note: nearly all actives have a fitted effect of over 75% in size
# Conditions: Transcreener GDP fluorescence polarization, RGS4-accelerated GTP hydrolysis; series mostly up to 114 µM
# Method in brief: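 MLSMR compounds (23 nl, pin-transferred) preincubated 10 min at room temperature with a 500nM (2x) first reagent, then RGS4 at 900nM (2x) plus Transcreener GDP mix added; fluorescence polarization (620/688 nm) read before and after 90 min at 30 °C.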
# % is set by controls: 0 for no effect and ±100 for the full control effect; potency is the fitted concentration of half-maximal effect; tags give direction and shape of the fitted curve.
# Chain of UniProt P49798 (P49798 whole entry, looked up): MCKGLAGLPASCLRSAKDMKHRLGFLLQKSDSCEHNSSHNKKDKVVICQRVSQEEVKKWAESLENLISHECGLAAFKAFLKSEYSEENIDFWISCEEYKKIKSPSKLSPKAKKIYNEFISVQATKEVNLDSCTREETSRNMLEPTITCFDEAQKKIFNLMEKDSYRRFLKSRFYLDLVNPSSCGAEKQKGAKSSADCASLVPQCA
SMILES,Potency,"activity change, negative = inhibition"
O=C(CO/N=C/c1cccc([N+](=O)[O-])c1)NC1CCCCC1,"inconclusive: 100 µM [inhibitor, partial curve, poor fit]",
COc1ccc(-c2nnc(Nc3nc4c(OC)cccc4s3)o2)cc1,"inconclusive: 50.1 µM [inhibitor, partial curve, poor fit]",
Cc1ccc(NC(=O)NNC(=O)c2cc3ccccc3cc2O)c(C)c1,"inconclusive: 44.7 µM [inhibitor, partial curve, poor fit]",
CC(=O)Nc1ccccc1NC(=O)c1ccc(C)cc1C,"inconclusive: 56.2 µM [inhibitor, partial curve, poor fit]",
Nc1cccn2c(-c3ccc(Cl)cc3)cnc12,"inconclusive: 56.2 µM [inhibitor, partial curve, poor fit]",
NC(=O)c1sc2nc(-c3ccco3)ccc2c1N,inactive,
CCCCNc1c(-c2ccc(SC(C)CC)cc2)nc2cnccn12 (configuration not stated),inactive,
CCCCCCCCCCCCCCCC(=O)N[C@@H](COP(=O)(O)O)C(=O)O,"inconclusive: 0.006 µM [inhibitor, full curve, poor fit]",
CC(C)(C)OC(=O)N1CC=C2C(C#N)=C(N)C(C#N)(C#N)C(c3cccs3)C2C1 (configuration not stated),"inconclusive: 100 µM [inhibitor, single point]",
CC(C)OC(=O)CN1C(=O)S/C(=C/c2ccc(N3CCCCC3)o2)C1=O,"inconclusive: 17.8 µM [inhibitor, full curve, poor fit]",
O=C(c1ccc(Cn2c(=O)[nH]c3ccccc3c2=O)cc1)N1CCN(c2ccccc2)CC1,,inactive: -4.94% [at 11.4 µM]
Cc1cn(-c2cc(NC(=O)c3ccc(C)c(NC(=O)c4cccc(-c5cn[nH]c(=O)c5)c4)c3)cc(C(F)(F)F)c2)cn1,"inconclusive: 44.7 µM [inhibitor, partial curve, poor fit]",
O=C(c1ccc2ccccc2c1)N1CCN(c2ccc(O)cc2)CC1,"inconclusive: 89.1 µM [inhibitor, single point]",
COc1ccc(CCn2c(N)cc(=O)[nH]c2=O)cc1OC,"inconclusive: 79.4 µM [inhibitor, single point]",
Oc1cc(CNCc2ccccc2)c(O)cc1CNCc1ccccc1,"inconclusive: 17.8 µM [inhibitor, full curve, poor fit]",
Cc1cc(O)c(NC(=O)c2ccco2)cc1C,"inconclusive: 100 µM [inhibitor, single point]",
CCCCCCSc1ccc([C@H]2N[C@@](Cc3ccccc3)(C(=O)OC)[C@H]3C(=O)N(CC)C(=O)[C@@H]23)cc1,inactive,
